Test results as given in patent EP4803098A1, “GIPR BLOCKING TYPE ANTIBODY AND ANTIBODY CONJUGATE THEREOF” (Shandong Boan Biotechnology Co., Ltd., priority 2023, dated 2025).
Positions count from the first letter of the chain named.

B1: CE947: GIPR blocking type antibody, IgG1, from phage library Q1; CDRs SEQ ID NO: 11-16 (antibody)
heavy: EVQLVQSGAEVKKPGSSVKVSCKASGGTFNNYAISWVRQAPGQGLEWMGRIIPFLDIASNAQKFQGKVTITADKSTSTAYMELSSLRSEDTAVYYCAREVDWGWFDSWGQGTLVTVSSASTKGPSVFPLAPSSKSTSGGTAALGCLVKDYFPEPVTVSWNSGALTSGVHTFPAVLQSSGLYSLSSVVTVPSSSLGTQTYICNVNHKPSNTKVDKKV[human IgG1 Fc with changes omitted here]
light: DIQMTQSPSSLSASVGDRVTITCRASQGISNYLAWFQQKPGKAPKSLIYAASSLQSGVPSRFSGSGSGTDFTLTISNLQPEDFATYYCLQYYDYPLTFGGGTKLEIKRTVAAPSVFIFPPSDEQLKSGTASVVCLLNNFYPREAKVQWKVDNALQSGNSQESVTEQDSKDSTYSLSSTLTLSKADYEKHKVYACEVTHQGLSSPVTKSFNRGEC
B2: BA191: GIPR blocking type antibody, IgG1, from phage library Q3; CDRs SEQ ID NO: 3-8 (antibody)
heavy: EVQLVQSGAEVKKPGSSVKVSCKASGGTFSTFSSYAISWVRQAPGQGLEWMGRIIPILGIGNNAQKFQGRVTITADKSTSTAYMELSSLRSEDTAVYYCAREKDWGHFDYWGQGTLVTVSSASTKGPSVFPLAPSSKSTSGGTAALGCLVKDYFPEPVTVSWNSGALTSGVHTFPAVLQSSGLYSLSSVVTVPSSSLGTQTYICNVNHKPSNTKVDKKV[human IgG1 Fc with changes omitted here]
light: B1 light with R61K, N77S, L89Q, Y92N, D93S, L96I, G100Q, K103R
B3: CE560: GIPR blocking type antibody from phage library Q1; CDRs SEQ ID NO: 48-53 (antibody)
heavy: EVQLVQSGAEVKKPGSSVKVSCKASGGTFNNYAISWVRQAPGQGLEWMGRIIPFLDIASYAQKFQGKVTITADKSTSTAYMELSSLRSEDTAVYYCAREVDWGWFDSWGQGTLVTVSSASTKGPSVFPLAPSSKSTSGGTAALGCLVKDYFPEPVTVSWNSGALTSGVHTFPAVLQSSGLYSLSSVVTVPSSSLGTQTYICNVNHKPSNTKVDKKV[human IgG1 Fc with changes omitted here]
light: IQMTQSPSSLSASVGDRVTITCRASQGISSYLAWYQQKPGKAPKLLIYAASTLQSGVPSRFSGSGSGTDFTLTISSLQPEDFATYYCQQLNSYPLTFGGGTKVEIKRTVAAPSVFIFPPSDEQLKSGTASVVCLLNNFYPREAKVQWKVDNALQSGNSQESVTEQDSKDSTYSLSSTLTLSKADYEKHKVYACEVTHQGLSSPVTKSFNRGEC
B4: CA360: GIPR blocking type antibody from phage library Q2; CDRs SEQ ID NO: 40-45 (antibody)
heavy: EVQLVQSGAEVKKPGSSVKVSCKASGGTFSGYPINWVRQAPGQGLEWMGRIIPIPGIPNYAQKFQDRVTITADKFANTAYMELSSLRSEDTAVYYCARDPLGPYVFDIWGQGTMVTVSSASTKGPSVFPLAPSSKSTSGGTAALGCLVKDYFPEPVTVSWNSGALTSGVHTFPAVLQSSGLYSLSSVVTVPSSSLGTQTYICNVNHKPSNTKVDKKV[human IgG1 Fc with changes omitted here]
light: DIVMTQSPATLSVSPGERATLSCRASQSVSSNLAWYQQKPGQAPRLLIYGASTRATGIPARFSGSGSGTEFTLTISSLQSEDFAVYYCQQYNNWPLTFGGGTKVEIKRTVAAPSVFIFPPSDEQLKSGTASVVCLLNNFYPREAKVQWKVDNALQSGNSQESVTEQDSKDSTYSLSSTLTLSKADYEKHKVYACEVTHQGLSSPVTKSFNRGEC

Assay: Aggregation risk of conjugate products stored at 4 °C (supernatant protein, OD280)
Assay type: physicochemical
Conditions: antibody conjugated to L1-P1
Protocol: CE947, BA191, CE560, and CA360 were conjugated to L1-P1 to obtain antibody-polypeptide conjugates. The conjugate products were stored at 4 °C for 3 days and observed for precipitate formation. After centrifugation, the protein content in the supernatant before and after storage was detected (OD280 was measured), and the reduction proportion of the conjugate products was calculated. […] Table 13. Reduction proportion of supernatant protein after 3 days of conjugate product storage at 4 °C

Molecule	Reduction proportion of supernatant protein after 3 days of storage at 4 °C [%]
B1	18
B2	42
B3	1
B4	0
